# Counter-ions that a name gives are not always drawn. This is one part of the list. Single values of this set are uncertain. Values with irradiation are relative to irradiated vehicle.
# System: A549-Dual
# Assay: NF-kB reporter (SEAP) activity, viability-corrected, relative to vehicle (fold change vs vehicle); higher = more activation of STING-IRF / NF-kB immune response reporter
# Conditions: 10 µM; irradiation: 8 Gy/4 fr
# 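Note: viability correction based on the alamar blue assay, with concentrations leaving 10% survival or less dropped.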
row,SMILES,NF-kB reporter
1,O=C(O)CC(O)C(=O)O (stereo not given) [Malic acid],0.772
2,CCC(C)C(N)C1=NCC(C(=O)NC(CC(C)C)C(=O)NC(CCC(=O)[O-])C(=O)NC(C(=O)NC2CCCCNC(=O)C(CC(N)=O)NC(=O)C(CC(=O)[O-])NC(=O)C(Cc3c[nH]cn3)NC(=O)C(Cc3ccccc3)NC(=O)C(C(C)CC)NC(=O)C(CCCN)NC2=O)C(C)CC)S1.[Zn+2] (stereo not given) [Bacitracin Zinc],0.797
3,Cc1cc(C(C)(C)C)cc(C)c1CC1=NCCN1.Cl [Xylometazoline HCl],0.839
4,CNCCC(Oc1cccc2ccccc12)c1cccs1 (stereo not given) [Duloxetine],0.879
5,CC(C)(C)CC(C)(C)c1ccc(OCCOCC[N+](C)(C)Cc2ccccc2)cc1.[Cl-] [Benzethonium Chloride],0.703
6,O=C(O)c1ccc(-n2nc(-c3ccccc3O)nc2-c2ccccc2O)cc1 [Deferasirox],0.407
7,Cc1onc(-c2c(F)cccc2Cl)c1C(=O)NC1C(=O)N2C1SC(C)(C)C2C(=O)[O-].[Na+] (stereo not given) [Flucloxacillin sodium],0.802
8,Cc1nc(C)c(C)nc1C.Cl [Ligustrazine hydrochloride],0.71
9,C=CC1(C)CC(OC(=O)CSC2CC3CCC(C2)N3C)C2(C)C(C)CCC3(CCC(=O)C32)C(C)C1O (stereo not given) [Retapamulin],0.572
10,NS(=O)(=O)c1cc(C(=O)O)c(NCc2ccco2)cc1Cl [Furosemide],0.806
11,CC1CCC(C(C)C)C(O)C1 (racemic) [DL-Menthol],1.11
12,NCCCC[C@H](N)C(=O)O [L-lysine],1.58
13,CC(CCC(=O)O)C1CCC2C3C(O)CC4CC(O)CCC4(C)C3CCC12C (stereo not given) [Ursodiol],0.808
14,C=C1c2c(Cl)ccc(O)c2C(=O)C2=C(O)C3(O)C(=O)C(C(N)=O)=C(O)C(N(C)C)C3C(O)C12.O=C(O)c1cc(S(=O)(=O)O)ccc1O (stereo not given) [Meclocycline Sulfosalicylate],0.625
15,COc1ccc(Cc2cnc(N)nc2N)cc1OC [Diaveridine],0.711
16,CC(CCC(=O)O)C1CCC2C3C(O)CC4CC(O)CCC4(C)C3CCC12C (stereo not given) [Chenodeoxycholic Acid],0.579
17,COc1cc(/C=C/C(=O)[O-])ccc1O.[Na+] [Sodium ferulate],0.978
18,CN1CCN(CC(=O)N2c3ccccc3C(=O)Nc3cccnc32)CC1.Cl.Cl [Pirenzepine dihydrochloride],0.899
19,OCc1ccccc1 [Benzyl alcohol],1.02
20,CN1c2ccccc2C(=O)N2CCc3c([nH]c4ccccc34)C21 (stereo not given) [Evodiamine],0.849

row,SMILES,NF-kB reporter
1,Cl.OC(CCN1CCCCC1)(c1ccccc1)C1CCCCC1 (stereo not given) [Trihexyphenidyl hydrochloride],0.795
2,CCNC1CN(CCCOC)S(=O)(=O)c2sc(S(N)(=O)=O)cc21 (stereo not given) [Brinzolamide],0.921
3,CCCCNc1cc(C(=O)O)cc(S(N)(=O)=O)c1Oc1ccccc1 [Bumetanide],0.738
4,Cl.NCCCC[C@H](N)C(=O)O [L-Lysine hydrochloride],0.804
5,CC(NCCCc1cccc(C(F)(F)F)c1)c1cccc2ccccc12.Cl (stereo not given) [Cinacalcet HCl],0.936
6,O=C(NC1CCN(CCCCC2(C(=O)NCC(F)(F)F)c3ccccc3-c3ccccc32)CC1)c1ccccc1-c1ccc(C(F)(F)F)cc1 [Lomitapide],0.844
7,CSCCNc1nc(SCCC(F)(F)F)nc2c1ncn2C1OC(COP(=O)([O][Na])OP(=O)([O][Na])C(Cl)(Cl)P(=O)([O][Na])[O][Na])C(O)C1O (stereo not given) [Cangrelor Tetrasodium],0.956
8,NC(CCC(=O)[O][Na])C(=O)O [L-Glutamic acid monosodium salt],0.859
9,CCCC1CC(C(=O)NC(C(C)Cl)C2OC(SC)C(OP(=O)(O)O)C(O)C2O)N(C)C1 (stereo not given) [Clindamycin Phosphate],0.788
10,CC(=O)N[C@@H](Cc1ccc(O)cc1)C(=O)O [N-Acetyl-L-tyrosine],1.17
11,COc1cc(S(=O)(=O)[O-])ccc1O.[K+] [Sulfogaiacol],1.64
12,CCC(C)(C)C(=O)OC1CC(C)C=C2C=CC(C)C(CCC3CC(O)CC(=O)O3)C21 (stereo not given) [Simvastatin],1.61
13,COC1C(OC(C)=O)CC(=O)OC(C)C/C=C/C=C/C(O)C(C)CC(CC=O)C1OC1OC(C)C(OC2CC(C)(O)C(OC(=O)CC(C)C)C(C)O2)C(N(C)C)C1O (stereo not given) [Josamycin],0.724
14,CCCCCCCCCCCC(=O)O [Lauric Acid],0.785
15,CC1=CC(=O)CC(C)(C)C1(O)/C=C/C(C)=C\C(=O)O (stereo not given) [Abscisic Acid (Dormin)],1.09
16,CC(NC(=NC#N)Nc1ccncc1)C(C)(C)C.O (stereo not given) [Pinacidil],1.01
17,O=C([O-])CC(O)CC(O)C=Cc1c(C2CC2)nc2ccccc2c1-c1ccc(F)cc1.O=C([O-])CC(O)CC(O)C=Cc1c(C2CC2)nc2ccccc2c1-c1ccc(F)cc1.[Ca+2] (stereo not given) [Pitavastatin Calcium],2.03
18,OCC1OC(O)C(O)C(O)C1O [D-Mannose],0.812
19,Cc1ncc(COP(=O)(O)O)c(C=O)c1O.O [Pyridoxal 5-phosphate monohydrate],1.02
20,CC1(C)SC2C(NC(=O)C(NC(=O)N3CCN(S(C)(=O)=O)C3=O)c3ccccc3)C(=O)N2C1C(=O)[O-].[Na+] (stereo not given) [Mezlocillin Sodium],0.906
